To fix the notation:
B1: LINE1-mini (parent)
chain: GGCAGAGCUCAACACAGCGUGGCAAAGUGGCUGUGGCUAGACUGCC

Read counts are not given, so values of variants with three or more changes are uncertain.

In the data set the parent is B1. Description: self-cleavage, relative activity (ratio to wild type); higher = more cleavage; in vitro, sequencing; the parent is a self-cleaving ribozyme.
Regarding GGCAGAGCUCAACAGGGAGUGGCAAAGUGGCUGUGGCUAGAUUGCC, the self-cleavage is 0.04. To GGCAGAGCUCAACAAAGCCUCGCAAAGUGGCUUUGGCUAGACUGCC belongs 0.58. In the case of GGCAGAGCUCAACAAAGCGUUGAAAAGUGGCUGUGGCUAGACUGCU, the self-cleavage stood at 0.05. Then GGCAGAGCUCAACAAAGCGUGGCAAAGUCGCUGUGGCACGACUGCA, with 0.69; and GGCAGAGCUCAACAAAGCGUGGCAAAGUCGCUGUGGCUAGAAUGCC, with 0.05; and GGCAGAGCUCAACAAAGCGUUUCAAAGUGGCUGUGGCUAGACUGCC, with 0.78.

In the case of GGCAGAGCUCAACAAAGCGAGGCAAAGUGGCUCUGGCUAGAAUGCC, the self-cleavage worked out at 0.12. Then GGCAGAGCUCAACAAAGCGUUGCAAAGUGGCUUUGGAUAGACUGCC, with 0.08; and GGCAGAGCUCAACAAAGCGUGUCAGAGUGGCUGUGGCUAGACUGCC, with 0.17; and GGCAGAGCUCAACAAAGCAUGGCAAAGUGGCUGUGGCAAGACUGCU, with 0.05.

As to GGCAGAGCUCAACAAAGCCUGGCAAAGUUGCUGUGGCUAGACUGCC, the self-cleavage is 0.03. Then GGCAGAGCUCAACAAAGCGUGGCAAAGUGGCUGUGACUAGAAUGCC, with 0.06; and GGCAGAGCUCAACAAAUCGUGGCAAAGUGGCUGUUGCUAGACUGCC, with 0.02.

For the variant GGCAGAGCUCAACAAAGCGUGGCAAAGGGGCUGUGGCUAUACUGCC, the self-cleavage was 0.05. Then GGCAGAGCUCAACAAAGCGUAGCAAACUGGCUGUGGCUAGACUGCC, with 0; and GGCAGAGCUCAACAAAGCGUGGCAAAGUCGCUGUAGCUUGACUGGC, with 0.01. To GGCAGAGCUCAACAAAGCGUGUCAAAGUGGCUGUGGCUAGACUCUC belongs 0.09; to GGCAGAGCUCAACAAAGCCUGGCAAAGUGGCGGGGGCUAGACUGCC, 0; to GGCAGAGCUCAACAAAGCGUGGCAAAGUGGCUGUUGCUAGACUGCA, 0.04.

Consider GGCAGAGCUCAACAAAGCCUGGCAAAGUGGCUAUGGCUAGACUGCC, for which the self-cleavage was 0.08. Then GGCAGAGCUCAACAAAGCGAGGCAAAGUUGCUGUGACUAGACUGCC, with 0.03. To GGCAGAGCUCAACAAAGCGUGGCAAACUGGUUGUGGCUAGACUGCC belongs 0.02.

GGCAGAGCUCAACAAAGCGAGGCAAAGUGGCUAUAGCUAUACUGCA: the self-cleavage is 0. Consider GGCAGAGCUCAACAAAGCGUGGCAAAGCGGCUGUGGCUAGCCUGCC, for which the self-cleavage was 0.01. With GGCAGAGCUCAACAAAGCGUGGCAAAGCGGCUGUGGCUAGUCUGCC, the self-cleavage was found to be 0.06.

Regarding GGCAGAGCUCAACAAAGCAUGGAAAAGUGGCUGUGGCUAGCCUGCC, the self-cleavage amounted to 0.06. Then GGCAGAGCUCAACAAAGCUUGGCAAAAUGGCUGUGGUUAGACUGCC, with 0.02; and GGCAGAGCUCAACAAAGCGUGGCAAAGUUGCUGUGGCUAGAUUGCC, with 0.07; and GGCAGAGCUCAACAAAGCGUGGCAAAGUGGCUGUCGGUAGACUGCC, with 0.04. To GGCAGAGCUCAACAAAGCGUUGGAAAGUGGCUGUGGCUAGACUGGG belongs 0.01; to GGCAGAGCUCAACAAAGCGUGGCAAAGUGACCGUGGCUAGACUGCC, 0.02; to GGCAGAGCUCAACAAAGCGAGCCAAAGUCGGUGUGGCUAGUAUGCC, 0.01. Then GGCAGAGCUCAACAAAGCGUGGCAAAGUGGCGGAGGCUAGACUGCC, with 0.14; and GGCAGAGCUCAACAAAGCGUGGCAAAGUGGCUGUGGCUAUGCUGGC, with 0.01; and GGCAGAGCUCAACAAAGCGUGGCAAAGUGACUAAGGCUAGACUGCC, with 0.01. On to GGCAGAGCUCAACAAAGCGUGACAAAGUGGCUGUGCCUAGACUGCC, for which the self-cleavage was 0.01. To GGCAGAGCUCAACAAAGCAUGGCAAAGUGGCUGGGCCUAGACUGCC belongs 0.01. To GGCAGAGCUCAACAAAGCGUGGCAAAAUGGCUGUGGCUAGACUGAC belongs 0.05; to GGCAGAGCUCAACAAAGCGUGGCAAAGUCGCUGUGGUUAGACUGCC, 0.02. Then GGCAGAGCUCAACAAAGCGUUGCAAAGUGGCUGUGGCUACAUUGCC, with 0.06; and GGCAGAGCUCAACAAAGCGUGGCAAACUGGCUGUGGCUUCUCUGCC, with 0.09. Regarding GGCAGAGCUCAACAGCGCGUGGCAAAGUGGUUGUGGCUAGACUGCC, the self-cleavage came out at 0.02. Then GGCAGAGCUCAACAAAGCGUGGCAAAGUGGCAGUGGCUAGACUGCU, with 0.02; and GGCAGAGCUCAACAGCGCGUGGCAAAGUGCCUGUGGCUCGACUGUC, with 0.02; and GGCAGAGCUCAACAAAGCGUGGCAAAGUGGCUGUGUCUAGACCGCC, with 0.02.

For the variant GGCAGAGCUCAACAAAGCGUGACAAAGUGGCUGUCGCUAGGCUGCC, the self-cleavage came to 0.05. Then GGCAGAGCUCAACAGCGCGUGGCAAAGUGGCUGUGGCUAGAAUGCC, with 0.01; and GGCAGAGCUCAACAAAGCGUGGCAAAAUGGCGGUGGCUAGACUGUC, with 0.05; and GGCAGAGCUCAACAAAGCGUUGCAAAGUGGCUGUGGCUAGAUUGCC, with 0.07. To GGCAGAGCUCAACAAAGCGUGCCAAUGUGGCUGUGGCUAGACUGCC belongs 0.05. GGCAGAGCUCAACAAAGCGUGGCAAAUUGGCUGUGGAUAGACUGGC: the self-cleavage amounted to 0.03. As for GGCAGAGCUCAACAAAUCGUGGCAAAGUGGCUGUGGCAAGACUGCC, the self-cleavage worked out at 0.12. Turning to GGCAGAGCUCAACAAAGCUUGGCAAAGUGUCUGUGGCUAACCUGCC, the self-cleavage stood at 0.13.

Consider GGCAGAGCUCAACAAAGCGUGGCAAAGUAGCUGUGGCUUGACUUCC, for which the self-cleavage was 0.05. Then GGCAGAGCUCAACAAAGCGUGUCAGAGCGGCUGUGGCCAGACUGCC, with 0.03; and GGCAGAGCUCAACAAAGCGUGGCAAAGUGGCUGUCCCUAGACUGCC, with 0.09.

Values taken from the RNAGym collection of RNA variant scans (doi:10.7554/elife.90254).
